# The supplement of paper PMC8728848
# Some of the results follow.
# B1: Siglec-F (Mus musculus), Q920G3 (protein)
# chain: MRWAWLLPLLWAGCLATDGYSLSVTGSVTVQEGLCVFVACQVQYPNSKGPVFGYWFREGANIFSGSPVATNDPQRSVLKEAQGRFYLMGKENSHNCSLDIRDAQKIDTGTYFFRLDGSVKYSFQKSMLSVLVIALTEVPNIQVTSTLVSGNSTKLLCSVPWACEQGTPPIFSWMSSALTSLGHRTTLSSELNLTPRPQDNGTNLTCQVNLPGTGVTVERTQQLSVIYAPQKMTIRVSWGDDTGTKVLQSGASLQIQEGESLSLVCMADSNPPAVLSWERPTQKPFQLSTPAELQLPRAELEDQGKYICQAQNSQGAQTASVSLSIRSLLQLLGPSCSFEGQGLHCSCSSRAWPAPSLRWRLGEGVLEGNSSNGSFTVKSSSAGQWANSSLILSMEFSSNHRLSCEAWSDNRVQRATILLVSGPKVSQAGKSETSRGTVLGAIWGAGLMALLAVCLCLIFFTVKVLRKKSALKVAATKGNHLAKNPASTINSASITSSNIALGYPIQGHLNEPGSQTQKEQPPLATVPDTQKDEPELHYASLSFQGPMPPKPQNTEAMKSVYTEIKIHKC
# Assays:
# Test in all cases: glycan array binding signal (z-score within array); higher = stronger binding
# Conditions in all cases: glycan notation: IUPAC condensed, linker removed
# [1] = molecular target: Neu5Ac(a2-3)Gal(b1-4)Glc
# In short: (§1)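 The binding signal is a Z-score computed within each array. Data were drawn from 3228 arrays in the Consortium for Functional Glycomics database, restricted to those with a known protein sequence. Scores were averaged over arrays of the same protein sequence at different concentrations or buffers, and over linkers, and negative values can be taken as non-binding.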
# [2] = molecular target: Neu5Ac(a2-3)Gal(b1-4)GlcNAc
# In short: as §1
# [3] = molecular target: Neu5Ac(a2-3)Gal(b1-4)GlcNAc(b1-2)Man
# In short: as §1
# [4] = molecular target: Neu5Ac(a2-3)Gal(b1-4)GlcNAc(b1-2)Man(a1-3)[GlcNAc(b1-2)Man(b1-4)GlcNAc(b1-2)Man(a1-6)]Man(b1-4)GlcNAc(b1-4)GlcNAc
# In short: as §1
# [5] = molecular target: Neu5Ac(a2-3)Gal(b1-4)GlcNAc(b1-2)Man(a1-3)[GlcNAc(b1-4)][Neu5Ac(a2-3)Gal(b1-4)GlcNAc(b1-2)Man(a1-6)]Man(b1-4)GlcNAc(b1-4)GlcNAc
# In short: as §1
# [6] = molecular target: Neu5Ac(a2-3)Gal(b1-4)GlcNAc(b1-2)Man(a1-3)[Neu5Ac(a2-3)Gal(b1-4)GlcNAc(b1-2)Man(a1-6)]Man(b1-4)GlcNAc(b1-4)GlcNAc
# In short: as §1
# [7] = molecular target: Neu5Ac(a2-3)Gal(b1-4)GlcNAc(b1-2)Man(a1-3)[Neu5Ac(a2-3)Gal(b1-4)GlcNAc(b1-2)Man(a1-6)]Man(b1-4)GlcNAc(b1-4)[Fuc(a1-6)]GlcNAc
# In short: as §1
# [8] = molecular target: Neu5Ac(a2-3)Gal(b1-4)GlcNAc(b1-2)Man(a1-3)[Neu5Ac(a2-6)Gal(b1-4)GlcNAc(b1-2)Man(a1-6)]Man(b1-4)GlcNAc(b1-4)GlcNAc
# In short: as §1
# [9] = molecular target: Neu5Ac(a2-3)Gal(b1-4)GlcNAc(b1-2)[Neu5Ac(a2-3)Gal(b1-4)GlcNAc(b1-4)]Man(a1-3)[GlcNAc(b1-4)][Neu5Ac(a2-3)Gal(b1-4)GlcNAc(b1-2)[Neu5Ac(a2-3)Gal(b1-4)GlcNAc(b1-6)]Man(a1-6)]Man(b1-4)GlcNAc(b1-4)GlcNAc
# In short: as §1
# [10] = molecular target: Neu5Ac(a2-3)Gal(b1-4)GlcNAc(b1-2)[Neu5Ac(a2-3)Gal(b1-4)GlcNAc(b1-4)]Man(a1-3)[GlcNAc(b1-4)][Neu5Ac(a2-3)Gal(b1-4)GlcNAc(b1-4)Man(a1-6)]Man(b1-4)GlcNAc(b1-4)GlcNAc
# In short: as §1
# [11] = molecular target: Neu5Ac(a2-3)Gal(b1-4)GlcNAc(b1-2)[Neu5Ac(a2-3)Gal(b1-4)GlcNAc(b1-6)]Man(a1-6)[Neu5Ac(a2-3)Gal(b1-4)GlcNAc(b1-2)Man(a1-3)]Man(b1-4)GlcNAc(b1-4)GlcNAc
# In short: as §1
# [12] = molecular target: Neu5Ac(a2-3)Gal(b1-4)GlcNAc(b1-2)[Neu5Ac(a2-3)Gal(b1-4)GlcNAc(b1-6)]Man(a1-6)[Neu5Ac(a2-3)Gal(b1-4)GlcNAc(b1-2)Man(a1-3)][GlcNAc(b1-4)]Man(b1-4)GlcNAc(b1-4)GlcNAc
# In short: as §1
# [13] = molecular target: Neu5Ac(a2-3)Gal(b1-4)GlcNAc(b1-3)Gal
# In short: as §1
# [14] = molecular target: Neu5Ac(a2-3)Gal(b1-4)GlcNAc(b1-3)Gal(b1-3)GlcNAc
# In short: as §1
# [15] = molecular target: Neu5Ac(a2-3)Gal(b1-4)GlcNAc(b1-3)Gal(b1-4)GlcNAc
# In short: as §1
# [16] = molecular target: Neu5Ac(a2-3)Gal(b1-4)GlcNAc(b1-3)Gal(b1-4)GlcNAc(b1-2)Man(a1-3)[Neu5Ac(a2-3)Gal(b1-4)GlcNAc(b1-3)Gal(b1-4)GlcNAc(b1-2)Man(a1-6)]Man(b1-4)GlcNAc(b1-4)GlcNAc
# In short: as §1
# [17] = molecular target: Neu5Ac(a2-3)Gal(b1-4)GlcNAc(b1-3)Gal(b1-4)GlcNAc(b1-3)Gal(b1-4)GlcNAc
# In short: as §1
# [18] = molecular target: Neu5Ac(a2-3)Gal(b1-4)GlcNAc(b1-3)Gal(b1-4)GlcNAc(b1-3)Gal(b1-4)GlcNAc(b1-2)Man(a1-3)[Neu5Ac(a2-3)Gal(b1-4)GlcNAc(b1-3)Gal(b1-4)GlcNAc(b1-3)Gal(b1-4)GlcNAc(b1-2)Man(a1-6)]GalNAc
# In short: as §1
# [19] = molecular target: Neu5Ac(a2-3)Gal(b1-4)GlcNAc(b1-3)Gal(b1-4)GlcNAc(b1-3)GalNAc
# In short: as §1
# [20] = molecular target: Neu5Ac(a2-3)Gal(b1-4)GlcNAc(b1-3)Gal(b1-4)GlcNAc(b1-3)[Neu5Ac(a2-3)Gal(b1-4)GlcNAc(b1-3)Gal(b1-4)GlcNAc(b1-6)]GalNAc
# In short: as §1
# [21] = molecular target: Neu5Ac(a2-3)Gal(b1-4)GlcNAc(b1-3)Gal(b1-4)GlcNAc(b1-6)[Gal(b1-3)]GalNAc
# In short: as §1
# [22] = molecular target: Neu5Ac(a2-3)Gal(b1-4)GlcNAc(b1-3)Gal(b1-4)[Fuc(a1-3)]GlcNAc
# In short: as §1
# [23] = molecular target: Neu5Ac(a2-3)Gal(b1-4)GlcNAc(b1-3)GalNAc
# In short: as §1
# [24] = molecular target: Neu5Ac(a2-3)Gal(b1-4)GlcNAc(b1-3)[Neu5Ac(a2-3)Gal(b1-4)GlcNAc(b1-6)]GalNAc
# In short: as §1
# [25] = molecular target: Neu5Ac(a2-3)Gal(b1-4)GlcNAc(b1-6)GalNAc
# In short: as §1
# [26] = molecular target: Neu5Ac(a2-3)Gal(b1-4)GlcNAc(b1-6)[Gal(b1-3)]GalNAc
# In short: as §1
# [27] = molecular target: Neu5Ac(a2-3)Gal(b1-4)GlcNAc(b1-6)[Neu5Ac(a2-3)Gal(b1-3)]GalNAc
# In short: as §1
# [28] = molecular target: Neu5Ac(a2-3)Gal(b1-4)GlcNAc6S
# In short: as §1
# [29] = molecular target: Neu5Ac(a2-3)Gal(b1-4)[Fuc(a1-3)]GlcNAc
# In short: as §1
binder,measurement,setting,value
B1,glycan array binding signal (z-score),[1],-0.019
same,glycan array binding signal (z-score),[2],-0.011
same,glycan array binding signal (z-score),[3],-0.131
same,glycan array binding signal (z-score),[4],2.11
same,glycan array binding signal (z-score),[5],1.69
same,glycan array binding signal (z-score),[6],1.94
same,glycan array binding signal (z-score),[7],2.76
same,glycan array binding signal (z-score),[8],-0.014
same,glycan array binding signal (z-score),[9],8.27
same,glycan array binding signal (z-score),[10],5.53
same,glycan array binding signal (z-score),[11],0.264
same,glycan array binding signal (z-score),[12],5.76
same,glycan array binding signal (z-score),[13],0.068
same,glycan array binding signal (z-score),[14],-0.026
same,glycan array binding signal (z-score),[15],0.122
same,glycan array binding signal (z-score),[16],0.014
same,glycan array binding signal (z-score),[17],-0.001
same,glycan array binding signal (z-score),[18],0.062
same,glycan array binding signal (z-score),[19],-0.133
same,glycan array binding signal (z-score),[20],-0.026
same,glycan array binding signal (z-score),[21],-0.108
same,glycan array binding signal (z-score),[22],-0.108
same,glycan array binding signal (z-score),[23],0.027
same,glycan array binding signal (z-score),[24],0.066
same,glycan array binding signal (z-score),[25],-0.061
same,glycan array binding signal (z-score),[26],-0.103
same,glycan array binding signal (z-score),[27],0.072
same,glycan array binding signal (z-score),[28],0.325
same,glycan array binding signal (z-score),[29],-0.092
